Measured values as given in the supplement of paper PMC11417369.
The list shows a part of the results.

These sequences were tested on PfAP2-HC AP2 domain (GST-tagged) (assay: gcPBM binding intensity (ln(normalized median fluorescence intensity)); higher = stronger DNA binding).
In short: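 The highest Masliner-normalised natural-log median intensity across replicate spots of either probe orientation is reported as binding intensity. GST-tagged P. falciparum DNA-binding domains expressed in E. coli were applied for 1 h to an Agilent 4 × 180k array of primer-extended double-stranded 36-bp intergenic genomic probes plus negative controls, and bound protein was detected with Alexa488 anti-GST antibody and scanned at 488 nm.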

| Sequence | gcPBM binding intensity (ln) |
| --- | --- |
| CGCTCTCTTTAATATTGTACATATATATTATATATA [XGTACX_site7017] | 9.8 |
| AATAAATAGAAAGAGGTGCTACATTATATTATTTAT | 9.68 |
| TTATACGAAGTACGTACACACACTTATATGTTACTA [CACACA_site4019] | 10.1 |
| AATATATGTATATCCACACACATATATATATATATA [CACACA_site1633] | 9.96 |
| TATTTTGTATTCATTTGTCACATATAATAGATAGGA [TGCATGCA_negctrl_site9] | 9.4 |
| ATAGATATAACATATGCATGTAAAATATAACCACTC [TGCATGCA_site60] | 9.97 |
| TGTGCGGAAATAAGTGCACACATAGATATATGTATT [CACACA_site9227] | 10.2 |
| ACATATTTATATGTCTGTACAAATATGCAATTTTTT [XGTACX_site5516] | 9.66 |
| TTAGATAGATTTGTACGTACTTATTATAACGTATCA [XGTACX_site5067] | 9.5 |
| AATTTATAAATAATTAATTTGATAAATTATAAAGGG [GTGCAC_negctrl_site544] | 9.49 |
| AAAAAAAAAAAAAACACACATACATACATACATATA [CACACA_site4121] | 10.4 |
| ATATTTATAACTTGGTGTACTTTGAAAAAAAAAAAA [XGTACX_site5194] | 9.4 |
| ATAATTTTTTAGATCACACATATAAATAAATAAATA [CACACA_site5175] | 9.47 |
| TTATATTAGCCGATGGTGCATATATTTATAGGAAAA [GTGCAC_site9518] | 9.33 |
| GGATAATCATACGAAGCATGCTGAATTTCCAAATAA [TGCATGCA_site1013] | 9.5 |
| AAAAAAATTAAATGGGGTACAATAAGGGTCAAATAT [XGTACX_site8669] | 10.1 |
| TTTTATTATATATATTGTACATATATTTTTATTTTT [XGTACX_site1564] | 9.85 |
| AAAAAAAAAAATGGCTGTACATAATATTTAAATAGG [XGTACX_site4286] | 9.67 |
| GTTATATGAACTTATATACACACCATTTTTGTAAAT [CACACA_site695] | 9.78 |
| AAATCATATTCTTATTTTATTTTTTTTATTTTTTAT [XGTACX_negctrl_site166] | 9.65 |
| TGTAGATATTTTTGGGGTACTTTATAAAGAACTAGT [XGTACX_site5635] | 9.42 |
| TTACATATATTGGGGTGTACATATATTTTCCTTCAC [XGTACX_site6224] | 9.82 |

| Sequence | gcPBM binding intensity (ln) |
| --- | --- |
| AAAAAAAAAAAAAAAAGTACACATAATTGTATATGT [XGTACX_site6339] | 9.61 |
| AAATATTGTTTTTTATGTACTTATTTTTATTTATTT [XGTACX_site3481] | 9.8 |
| ATGAAAAAGTGCTGGATTCTAAAGAAAAAAAAAAAA [CACACA_negctrl_site962] | 9.52 |
| ATAAAATCAACAAATCAGGATGTCACGTAAATATCA [CACACA_negctrl_site1009] | 10 |
| ATATTTTATATATTTGTGCACAATATTATAATATAT | 9.68 |
| GAAAAACAAATATATTAACACACAAACATATAAACA [CACACA_site9315] | 10.2 |
| GTTTATTTTTTCATTTGTACACATAAATAAATATAT [XGTACX_site7752] | 9.77 |
| GGTATATATTCTATCACACATATTTCCATGAAAATA [CACACA_site4728] | 9.58 |
| TTAATTATATTATGCACACACAATTGGAAAAAAAAT [CACACA_site1958] | 9.95 |
| TATTTAGAAATAAATACACACATACATTTTTGTATA [CACACA_site4557] | 9.81 |
| AAAAAAAAGAAAAAAACACACAATGGAAAAAATGTA [CACACA_site3675] | 10.2 |
| ACGTTAGGCTTATTTGCACACTTGTATTAAAATTTT [CACACA_site4854] | 9.83 |
| AAAAATATGCTTCCATGTACTTAAAAAAAAAATTTA [XGTACX_site3617] | 9.37 |
| TCAACTTGATTTATATGTACACATATAAGTAATTAT [XGTACX_site1798] | 9.54 |
| TATACAAACTATGATGCACACATATATATATGTATA [CACACA_site8327] | 9.96 |
| AAAAAAAATTTTCTTCTGTTGTATTTTTTATACGTT [GTGCAC_negctrl_site477] | 9.68 |
| TGTTTGAATATAATCACACATTTATATAAAAAGTTA [CACACA_site5237] | 9.29 |
| TCTTTTTGCATGTGTGTGCGCACAAAATACACAAAA [GTGCAC_site9718] | 10 |
| AAATTGAAATATTCCTGTACACATTTTGAAAACTTA [XGTACX_site6101] | 9.47 |
| AAAATATAGTAACACATACACACATATATATTTATA [CACACA_site2504] | 10.2 |
| TTGTTATGTTTTATTTGTACGTAGGTTTCTATCAAA [XGTACX_site7636] | 9.74 |
| TATTAAACTAAATGTAGTACATACACAAAAGAAACC [XGTACX_site606] | 9.97 |

| Sequence | gcPBM binding intensity (ln) |
| --- | --- |
| AAAAAATATAAATATGTAAAAAGAGAAAAAAAAAAG [GTGCAC_negctrl_site9] | 9.8 |
| ATATTTAATTCATCATGTACACAAATAAGAAACAAA [XGTACX_site8076] | 9.67 |
| TATAAACATAAAACCAGTACATATATATTTTTCTTC [XGTACX_site212] | 9.73 |
| TGAAAATGGGAACCGTGTACAGGGCAGTTATAGGGG [XGTACX_site2950] | 9.87 |
| TTATGAAAATATTTTTTTCGTTTGATGTATATGTTT [CACACA_negctrl_site1556] | 9.63 |
| TAAAAAATTAAGCAACGTACAAATGAAAAGTATAAT [XGTACX_site1058] | 9.85 |
| TGATAACCAAAAAGGGGTACATACACAAAAAAATAC [XGTACX_site1254] | 10.1 |
| AACAACATTTGATAAACACACAGAAGTATAAATATA [CACACA_site5327] | 9.89 |
| TACTTATTAGACTATTGTACATACATTATTAATATT [XGTACX_site7849] | 9.83 |
| TATATCATCATGTATGTACACACATACATATATTAT [CACACA_site8387] | 9.98 |
| TACGTATTATAAATATGTACATATAATATGTATATA [XGTACX_site468] | 9.66 |
| ATAAAGAAAAATAGAAGTACATATATGCATGTTAAT [XGTACX_site4480] | 9.86 |
| AACAATAAAAATAATTGTACAAGTCTAAAAAAAATT [XGTACX_site20] | 9.79 |
| ATAACAAAATAATAATGTACGTATAAATATAATTTA [XGTACX_site6049] | 9.83 |
| CAAAAACATACCTACACACACAATATGTATATATAA [CACACA_site3514] | 10.2 |
| TAACAATAACTTTATACACACATAATATAAATATAT [CACACA_site7635] | 9.78 |
| TAAAATTTTAACAAAAAAAAAAAAAAAAAAAGAAAA [CACACA_negctrl_site1335] | 9.31 |
| CCAACATGCAGACGCACACACAAAAAAAGCATGCAT [CACACA_site74] | 10.4 |
| AATAATATATATATTACACACTAATTGTATTATATA [CACACA_site448] | 9.71 |
| TAACAATATCTAGATACACACACATATCTCTCAATC [CACACA_site8122] | 10.4 |
| ATTTATTTATTTAGCTGTACATTTATACAGAACGAT [XGTACX_site3336] | 9.51 |
| TTAATACCCGGACACACACACACAAAATAAAATACA [CACACA_site4296] | 10.6 |

| Sequence | gcPBM binding intensity (ln) |
| --- | --- |
| AAAATGAATAAAAATACACACATATATGTTATTCTC [CACACA_site2671] | 9.88 |
| AAATTGAGACAACAGGTGCATATAAATATACAGTGT [GTGCAC_site9634] | 9.79 |
| AATTTTTGTTACAAGATGCACTTAATTTTTCTAAAT | 9.49 |
| AATAAAAATTCAAGTTGTACTTTTTTAAAAATACAA [XGTACX_site3949] | 9.09 |
| TATTCATTAAACCATACACACATAATTTTTTTATAA [CACACA_site4618] | 9.82 |
| ATATATTATATAAAAAGTACTAAAATAGTAAGATGT [XGTACX_site7493] | 10.1 |
| AATGATTTTAAATGAACATAATTTATATTCATAACA [GTGCAC_negctrl_site256] | 9.42 |
| GTGTGCCAAATTAGCACACACATATATACATGAATT [CACACA_site7346] | 10.2 |
| AACGAAGCATAAAATGTTATGTATATATATAAATAT [TGCATGCA_negctrl_site304] | 9.79 |
| TACCAAAAAAAAAAAATAATAATAAAAAAAAAAAAA [TGCATGCA_negctrl_site11] | 9.18 |
| ATCATTTTGTGTTCAAGTACATAATGTTTTACACAA [XGTACX_site3565] | 9.65 |
| CATACATTATAAGATACATGCATATATCTGAACATA [TGCATGCA_site797] | 9.7 |
| GCAAAACATTTTTAAAATAAAAATAATAAAATATAT [CACACA_negctrl_site219] | 9.5 |
| ACATTGAACAAAATAGTAAGCACATATATATATATA [GTGCAC_negctrl_site679] | 9.62 |
| ACGTATCAATTTATTGGTACACATAAATATATATAT [XGTACX_site5556] | 9.63 |
| TGATTCATTGATAAGGGTACATTTATAATTATGATA [XGTACX_site6319] | 9.33 |
| ACACATAATATAAAGGTGCTATATTGTATTCATTTT [GTGCAC_site9457] | 9.8 |
| TTTTCATACACTGCTAGTATATACTACCACTGACAT [GTGCAC_negctrl_site514] | 9.8 |
| AAACATATATTAAGCACACACAAACAAAAAAACAAA [CACACA_site2549] | 10.9 |
| TGCAAAAAAAAAAAAAAAAAATATATGGAAATATAT [GTGCAC_negctrl_site257] | 9.37 |
| CAATAATATATATATTGTACATTTTTTTTTATTATT [XGTACX_site3149] | 9.66 |
| AAAGATTCTTTGAATTGTACAAATATATTTACTCAC [XGTACX_site8772] | 9.59 |
